Results as given in the supplement of paper PMC8728848.
The list shows a part of the results.

How the values were obtained:
Experiment in all cases: glycan array binding signal (z-score within array); higher = stronger binding
Conditions in all cases: glycan notation: IUPAC condensed, linker removed
[1] = molecular target: GlcNAc(a1-4)Gal(b1-4)GalNAc
Procedure, shortened: (§1)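 The binding signal is a Z-score computed within each array. Data were drawn from 3228 arrays in the Consortium for Functional Glycomics database, restricted to those with a known protein sequence. Scores were averaged over arrays of the same protein sequence at different concentrations or buffers, and over linkers, and negative values can be taken as non-binding.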

[2] = molecular target: GlcNAc(a1-4)Gal(b1-4)GlcNAc
Procedure, shortened: as §1

[3] = molecular target: GlcNAc(a1-4)Gal(b1-4)GlcNAc(b1-3)Gal(b1-4)Glc
Procedure, shortened: as §1

[4] = molecular target: GlcNAc(a1-4)Gal(b1-4)GlcNAc(b1-3)Gal(b1-4)GlcNAc
Procedure, shortened: as §1

[5] = molecular target: GlcNAc(a1-4)Gal(b1-4)GlcNAc(b1-3)Gal(b1-4)GlcNAc(b1-3)Gal(b1-4)GlcNAc
Procedure, shortened: as §1

[6] = molecular target: GlcNAc(a1-4)Gal(b1-4)GlcNAc(b1-3)Gal(b1-4)[Fuc(a1-3)]GlcNAc(b1-3)Gal(b1-4)[Fuc(a1-3)]GlcNAc
Procedure, shortened: as §1

[7] = molecular target: GlcNAc(a1-6)Gal(b1-4)GlcNAc
Procedure, shortened: as §1

[8] = molecular target: GlcNAc(b1-2)Gal(b1-3)GalNAc
Procedure, shortened: as §1

[9] = molecular target: GlcNAc(b1-2)Man(a1-3)[GlcNAc(b1-2)Man(a1-6)]Man(b1-4)GlcNAc(b1-4)GlcNAc
Procedure, shortened: as §1

[10] = molecular target: GlcNAc(b1-2)Man(a1-3)[GlcNAc(b1-2)Man(a1-6)]Man(b1-4)GlcNAc(b1-4)[Fuc(a1-6)]GlcNAc
Procedure, shortened: as §1

[11] = molecular target: GlcNAc(b1-2)[GlcNAc(b1-4)]Man(a1-3)[GlcNAc(b1-2)Man(a1-6)]Man(b1-4)GlcNAc(b1-4)GlcNAc
Procedure, shortened: as §1

[12] = molecular target: GlcNAc(b1-3)Gal
Procedure, shortened: as §1

[13] = molecular target: GlcNAc(b1-3)Gal(b1-3)GalNAc
Procedure, shortened: as §1

[14] = molecular target: GlcNAc(b1-3)Gal(b1-4)Glc
Procedure, shortened: as §1

[15] = molecular target: GlcNAc(b1-3)Gal(b1-4)GlcNAc
Procedure, shortened: as §1

[16] = molecular target: GlcNAc(b1-3)Gal(b1-4)GlcNAc(b1-3)Gal(b1-4)GlcNAc
Procedure, shortened: as §1

[17] = molecular target: GlcNAc(b1-3)GalNAc
Procedure, shortened: as §1

[18] = molecular target: GlcNAc(b1-3)Man
Procedure, shortened: as §1

[19] = molecular target: GlcNAc(b1-3)[GlcNAc(b1-4)][GlcNAc(b1-6)]GlcNAc
Procedure, shortened: as §1

[20] = molecular target: GlcNAc(b1-3)[GlcNAc(b1-6)]Gal(b1-4)GlcNAc
Procedure, shortened: as §1

[21] = molecular target: GlcNAc(b1-3)[GlcNAc(b1-6)]GalNAc
Procedure, shortened: as §1

[22] = molecular target: GlcNAc(b1-4)Gal(b1-4)GlcNAc
Procedure, shortened: as §1

[23] = molecular target: GlcNAc(b1-4)GlcNAc
Procedure, shortened: as §1

[24] = molecular target: GlcNAc(b1-4)GlcNAc(b1-4)GlcNAc
Procedure, shortened: as §1

[25] = molecular target: GlcNAc(b1-4)GlcNAc(b1-4)GlcNAc(b1-4)GlcNAc(b1-4)GlcNAc
Procedure, shortened: as §1

[26] = molecular target: GlcNAc(b1-4)GlcNAc(b1-4)GlcNAc(b1-4)GlcNAc(b1-4)GlcNAc(b1-4)GlcNAc
Procedure, shortened: as §1

[27] = molecular target: GlcNAc(b1-4)[GlcNAc(b1-6)]GalNAc
Procedure, shortened: as §1

[28] = molecular target: GlcNAc(b1-6)Gal(b1-4)GlcNAc
Procedure, shortened: as §1

[29] = molecular target: GlcNAc(b1-6)GalNAc
Procedure, shortened: as §1

[30] = molecular target: GlcNAc3Prop(b1-4)GlcNAc
Procedure, shortened: as §1

[31] = molecular target: GlcNAc6S(b1-3)Gal(b1-4)GlcNAc
Procedure, shortened: as §1

[32] = molecular target: Kdn(a2-3)Gal(b1-3)GalNAc
Procedure, shortened: as §1

[33] = molecular target: Kdn(a2-3)Gal(b1-3)GlcNAc
Procedure, shortened: as §1

[34] = molecular target: Kdn(a2-3)Gal(b1-4)Glc
Procedure, shortened: as §1

[35] = molecular target: Kdn(a2-3)Gal(b1-4)GlcNAc
Procedure, shortened: as §1

B1: ZG-16 (Homo sapiens), O60844 (protein)
chain: IQARSSSYSGEYGSGGGKRFSHSGNQLDGPITALRVRVNTYYIVGLQVRYGKVWSDYVGGRNGDLEEIFLHPGESVIQVSGKYKWYLKKLVFVTDKGRYLSFGKDSGTSFNAVPLHPNTVLRFISGRSGSLIDAIGLHWDVYPTSCSRCSRGSDDDDKAEPRGPTIKPCPPCKCPAPNLLGGPSVFIFPPKIKDVLMISLSPIVTCVVVDVSEDDPDVQISWFVNNVEVHTAQTQTHREDYNSTLRVVSALPIQHQDWMSGKEFKCKVNNKDLPAPIERTISKPKGSVRAPQVYVLPPPEEEMTKKQVTLTCMVTDFMPEDIYVEWTNNGKTELNYKNTEPVLDSDGSYFMYSKLRVEKKNWVERNSYSCSVVHEGLHNHHTTKSFSRTPGKRTYHHHHHHARKLTR
[1]
  glycan array binding signal (z-score): -0.185
[2]
  glycan array binding signal (z-score): 0.004
[3]
  glycan array binding signal (z-score): -0.171
[4]
  glycan array binding signal (z-score): -0.217
[5]
  glycan array binding signal (z-score): -0.168
[6]
  glycan array binding signal (z-score): -0.165
[7]
  glycan array binding signal (z-score): -0.11
[8]
  glycan array binding signal (z-score): -0.157
[9]
  glycan array binding signal (z-score): -0.175
[10]
  glycan array binding signal (z-score): -0.092
[11]
  glycan array binding signal (z-score): -0.152
[12]
  glycan array binding signal (z-score): -0.231
[13]
  glycan array binding signal (z-score): -0.217
[14]
  glycan array binding signal (z-score): -0.227
[15]
  glycan array binding signal (z-score): -0.225
[16]
  glycan array binding signal (z-score): -0.198
[17]
  glycan array binding signal (z-score): -0.21
[18]
  glycan array binding signal (z-score): 1.09
[19]
  glycan array binding signal (z-score): -0.134
[20]
  glycan array binding signal (z-score): -0.179
[21]
  glycan array binding signal (z-score): -0.129
[22]
  glycan array binding signal (z-score): -0.225
[23]
  glycan array binding signal (z-score): -0.206
[24]
  glycan array binding signal (z-score): -0.148
[25]
  glycan array binding signal (z-score): -0.078
[26]
  glycan array binding signal (z-score): 0.816
[27]
  glycan array binding signal (z-score): -0.08
[28]
  glycan array binding signal (z-score): -0.177
[29]
  glycan array binding signal (z-score): -0.087
[30]
  glycan array binding signal (z-score): -0.188
[31]
  glycan array binding signal (z-score): -0.2
[32]
  glycan array binding signal (z-score): -0.188
[33]
  glycan array binding signal (z-score): -0.149
[34]
  glycan array binding signal (z-score): -0.216
[35]
  glycan array binding signal (z-score): -0.17
